# Measurements: ChEMBL document CHEMBL1201862, “PubChem BioAssay data set” (2004)
# Several values for one entry are separate records, joined by “and”; a condition that tells them apart may be missing. Equal values may be shown once.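 Five concentrations, 48 hours, 96-well plates. GI50 = concentration required for 50% inhibition of growth.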 Activity calls are given as the source filed them. Rule as the data show it: active = GI50 up to about 1.1 µM and inactive = higher.
# Test system: NCI-H322M
# Experiment: inhibition of tumour cell growth, NCI panel, 48 h
row,SMILES,GI50
1,O=C(O)c1ccccc1-c1ccccc1C(=O)Nc1ccc2c(c1)Cc1cc(F)ccc1-2,inactive: 24.3 µM
2,Oc1cc(-c2ccc(Oc3ccccc3)cc2)nc2cc3c(cc12)OCO3,inactive: > 100 µM
3,[N-]=[N+]=CC(=O)COC(=O)c1ccccc1,inactive: > 100 µM
4,CC(C)Cn1cnc2c(SCc3ccc(Cl)cc3Cl)nc(N)nc21,inactive: 86.3 µM
5,COc1ccc2c(c1)N1CCc3cc(OC)c(OC)cc3C1C2 (centres undefined),inactive: > 100 µM
6,Cc1cc(Cl)cc2c1NC(=O)C2(O)C(C(=O)c1ccccc1)c1ccccc1 (centres undefined),inactive: > 100 µM and inactive: 86.1 µM
7,COc1ccc(/C=C(/C#N)C(N)=O)c(OC)c1,inactive: > 100 µM
8,N#CCCN(CCCN(CCCN(C(=O)Nc1ccccc1)c1ccccc1)C(=O)Nc1ccccc1)C(=O)Nc1ccccc1,inactive: > 8.75 µM
9,O=C1CCC2CCc3cccc4oc1c2c34 (centres undefined),inactive: > 100 µM
10,O=C1Oc2ccccc2C(=O)/C1=C\Nc1nc(-c2ccc(O)c(O)c2)cs1,inactive: 13.3 µM
11,COc1cccc(-c2nccc3c(OCc4ccccc4)c(OC)c(OC)cc23)c1,inactive: > 100 µM
12,Cc1cn2c(/C=C3/C(=O)Nc4ccccc43)c(-c3ccccc3)nc2s1,inactive: > 100 µM
13,Cn1cnc([N+](=O)[O-])c1Sc1nnnn1C,inactive: 48.9 µM
14,O=C(CC1=Nc2nnc(CCCCCCCc3nnc4n3C(=O)C(CC(=O)c3ccccc3)=N4)n2C1=O)c1ccccc1,inactive: > 100 µM
15,N=C(N)N/N=C/c1nc2n(c1[N+](=O)[O-])CCS2,inactive: 29.6 µM
16,Cc1ccc(S(=O)(=O)N/N=C2\CC3CC4CCC2C4C3)cc1 (centres undefined),inactive: > 100 µM
17,CC1(C)[C@@H](Cn2nnc3c(N)ncnc32)CC[C@@]1(C)CO,inactive: > 100 µM
18,O=CNNC(=O)CSc1nc2ccc(I)cc2c(=O)n1Cc1ccccc1,inactive: 43.4 µM
19,CC1=NN(C(=O)c2ccc([N+](=O)[O-])cc2)C(=O)C1/N=N/c1ccccc1C(=O)O (centres undefined),inactive: > 100 µM
20,OC(CCNC12CC3CC(CC(C3)C1)C2)c1ccccc1 (centres undefined),inactive: > 100 µM
21,COc1cc2c(c(OC(C)=O)c1OC(C)=O)-c1ccc(SC)c(=O)cc1C(NC(C)=O)CC2 (centres undefined),inactive: 2.86 µM
22,Cc1cccc2c1Sc1ccccc1C2NC(=O)CCN(C)C (centres undefined),inactive: > 100 µM
23,C[N+](C)(CCNC(=O)c1cccc2cc3ccccc3nc12)Cc1ccc([N+](=O)[O-])s1,inactive: > 25 µM
24,O=C1c2ccccc2C(=O)N1CCSCC(CO)SCCN1C(=O)c2ccccc2C1=O (centres undefined),inactive: > 100 µM

row,SMILES,GI50
1,COc1ccc(-c2cc3c(c4cc(OC)ccc24)C(=O)OC3=O)cc1,inactive: > 100 µM
2,COc1ccc(OCC(C)(C)O)cc1,inactive: > 100 µM
3,CCOC(=O)c1c(N2CCOCC2)[nH]c(=O)c(C(c2c(Cl)cccc2Cl)c2c(O)c(C(=O)OCC)c(N3CCOCC3)[nH]c2=O)c1O,inactive: 18.9 µM
4,CC(=O)c1c2c(cc3c1CC1(C3)Cc3cc4c(c(C(=O)O)c3C1)CCC4)CCC2 (centres undefined),inactive: 29.8 µM
5,CN/N=C(\C)C(CN(C)C)C(c1ccccc1)c1c(O)c2ccccc2oc1=O (centres undefined),inactive: > 100 µM
6,NC(=O)NC(=O)C1CCC(=O)N1S(=O)(=O)c1ccc(Cl)cc1 (centres undefined),inactive: > 100 µM
7,CC(C)(CO)NC1=C(Cl)C(=O)c2c(O)ccc(O)c2C1=O,inactive: 1.33 µM
8,O/N=C(/C(Cl)=C(Cl)Cl)C(Cl)Cl,inactive: 26 µM
9,Cn1c(=O)c2ccccc2c2nc3ccccc3nc21,inactive: > 100 µM
10,O=c1c2nc(-c3ccccc3)oc2n(-c2ccccc2)c(=O)n1-c1ccccc1,inactive: 39.6 µM
11,N#CCCN(CCC#N)c1ccc(C(=N/c2ccc(F)cc2)/N=N/c2ccccc2)cc1,inactive: > 100 µM
12,Nc1nc(Cl)cc(NCC2(CO)CCCCC2)n1,inactive: > 100 µM
13,CN(CCNC(=O)c1cn(C)c2c1ccc1cc(Cl)c(Cl)cc12)CCNC(=O)c1cn(C)c2c1ccc1cc(Cl)c(Cl)cc12,inactive: 1.85 µM
14,C/C(=C1/N=C(c2cc([N+](=O)[O-])ccc2Cl)N(c2ccc(Br)cc2)C1=O)c1cc2ccccc2oc1=O,inactive: 40.6 µM
15,Cn1c(=O)c2nc3sc4c(n3c2n(C)c1=O)C(=O)c1ccccc1C4=O,inactive: > 45.1 µM
16,COC(C(O)c1ccc2c(c1)OCO2)P(=O)(c1ccccc1)c1ccccc1 (centres undefined),inactive: > 100 µM
17,CCc1cccc(C)c1NC(C)=O,inactive: > 100 µM
18,CC1CCC(=O)C(C(=O)CC2CC(=O)N(C)C(=O)C2)C1 (centres undefined),inactive: > 100 µM
19,O=C1Oc2ccccc2C(=O)/C1=C\NC(=S)c1ccncc1,inactive: > 100 µM
20,CCCC(C)NC1=C(NC(C)=O)C(=O)c2ccccc2C1=O (centres undefined),inactive: > 100 µM
21,CC(=O)Oc1ccc(-c2nnc(-c3ccc(OC(C)=O)cc3)nn2)cc1,inactive: > 100 µM
22,CCCCNC1=C2C(=O)NN=C2CO1,inactive: > 100 µM
23,NC(CCOCCP(=O)(O)CCOCCC(N)C(=O)O)C(=O)O (centres undefined),inactive: > 100 µM
24,CC(C#N)c1cn(S(=O)(=O)c2ccccc2)c2ccccc12 (centres undefined),inactive: > 100 µM

row,SMILES,GI50
1,CCOC(=O)C(C)c1nc2cc(F)c(N3CCOCC3)cc2[nH]c1=O (centres undefined),inactive: 65.9 µM
2,O=P(O)(O)c1ccc2c(c1)OCCOCCOCCOCCO2,inactive: > 100 µM
3,COCC(OC)C(CC=C(C#N)C#N)OC (centres undefined),inactive: > 100 µM
4,CN(C)C(=O)OC1C(=O)N(C)c2ccc(Cl)cc2C2(c3ccccc3)N1C2(Cl)Cl (centres undefined),inactive: > 100 µM
5,COC(=O)c1ccccc1CC1Cc2c(C)ccc(C)c2C1=O (centres undefined),inactive: 52.1 µM
6,CCOC(=O)c1[nH]c2nc(SC)nc(NC)c2c1N,inactive: > 100 µM
7,COc1ccc(/C(Cl)=C(\C=O)c2ccc(Cl)cc2)cc1,inactive: 3.4 µM
8,CC(=O)Oc1ccc2cc(-c3ccccc3OC(C)=O)c(=O)oc2c1,inactive: > 100 µM
9,CCCCCc1cc(OC(=O)c2c(O)cc(OC)cc2CCCCC)cc(O)c1C(=O)O,inactive: 15.8 µM
10,C[C@@]12C[C@@H](c3ccccc3O1)N1CCSC1=N2,inactive: > 100 µM
11,COc1c2c(cc3oc(C)cc(=O)c13)OC(=N)C(C(N)=O)C2CC(=O)c1ccc(N)cc1 (centres undefined),inactive: 53.1 µM
12,O=C(c1cccs1)N(C(=S)N1CCN(c2ccccn2)CC1)c1ccccc1,inactive: 24.3 µM
13,COc1cc(OC)c(-c2ccc(OCc3ccccc3)c3c(OC)cc(C)cc23)c2c1C(C)=N[C@H](C)C2,inactive: 2.93 µM
14,COc1c(OC)c(O)c2c(=O)c(OC)c(-c3ccc4c(c3)OCO4)oc2c1O,inactive: > 100 µM
15,O=c1[nH]cc(/N=C/c2cc(Cl)cc(Cl)c2O)c(=O)[nH]1,inactive: 19.2 µM
16,CCCCOc1ccc(S(=O)(=O)/N=C(\NN)Nc2ccc(Cl)cc2)cc1,inactive: 36.2 µM
17,Cc1cccc(N(CCC#N)S(=O)(=O)c2ccccc2)c1,inactive: > 100 µM
18,CCOC(=O)CC1(C(=O)OCC)c2[nH]c3ccccc3c2CCN1Cc1ccccc1 (centres undefined),inactive: 31.4 µM
19,CCOP(=O)(OCC)C1=NC=CC=CC1n1c(-c2ccccc2)nn(CC)c1=O (centres undefined),inactive: > 100 µM
20,CC1=C(C(=O)NCc2ccccc2)C(c2ccc(N(C)C)cc2)C(C(=O)NCc2ccccc2)=C(C)N1,inactive: > 100 µM
21,CC/C(Cl)=N\OC(=O)Nc1ccc(OC)c(C)c1,inactive: 45.4 µM
22,Cn1ccc2c(C(=O)c3ccccc3)cccc2c1=O,inactive: 68.7 µM
23,CC(C)(C)C1=NC(=S)SC2=NC(=O)C3(NN21)c1ccccc1-c1ccccc13,inactive: > 10 µM
24,O=C1O[C@H](c2ccc3c(c2)OCO3)[C@H]2CO[C@@H](c3ccc4c(c3)OCO4)[C@@H]12,inactive: > 100 µM

row,SMILES,GI50
1,Cc1ccc(C2=Nc3c(N)nc(N)nc3NC(c3ccccc3)C2)cc1 (centres undefined),inactive: 15.7 µM
2,COc1ccc(/C=C/c2cc(=O)cc(/C=C/c3ccc(OC)c(O)c3)o2)cc1O,inactive: 2.86 µM
3,O=C(/C(=C(/Br)I)c1ccccc1)c1ccccc1,inactive: 15.7 µM
4,CCNC12CCC(C1)C(C)(C)C2=O (centres undefined),inactive: > 100 µM
5,CCC(=O)N(c1ccccc1)C(C)CN1CCC(O)(c2ccccc2)CC1 (centres undefined),inactive: > 100 µM
6,CC1(C)/C(=N\Nc2ccc([N+](=O)[O-])cc2[N+](=O)[O-])C2CCC1C2 (centres undefined),inactive: 8.83 µM
7,CCCCCCCCCC(=O)OCC1OC(n2cc(F)c(=O)[nH]c2=O)C(N)C(OC(=O)CCCCCCCCC)C1O (centres undefined),inactive: 20 µM
8,Cc1cc(C)c2c(c1)C(=O)C1(C2)Cc2c(ccc(C)c2C)C1=O (centres undefined),inactive: > 100 µM
9,C=C1CC[C@](C)(O)[C@@]2(C)CC[C@H]3C(=C(C)C)C(=O)C[C@]3(C)C[C@H]12,inactive: > 50 µM
10,O=C(O)C1CC2(C1)CC(C(=O)O)C2 (centres undefined),inactive: > 100 µM
11,c1cnn(CN(Cn2cccn2)Cn2cccn2)c1,inactive: > 100 µM
12,COc1ccc(C(=O)/C(Br)=C/C(=O)O)cc1,inactive: 40.1 µM
13,COc1ccc(C(CC(=O)c2ccc3c(c2)OCO3)c2c(O)oc3ccccc3c2=O)cc1OC (centres undefined),inactive: 76.4 µM
14,CN1CCS(=O)(=O)NC(Cc2ccccc2)C(=O)N2CCCC2C1=O (centres undefined),inactive: > 100 µM
15,O=S1(=O)C[C@@H](O)[C@H](O)CS1,inactive: > 100 µM
16,CCC(COC(=O)CC[C@@H](NC(=O)C(C)NC(=O)C(C)OC1C(O)C(CO)OC(OCc2ccccc2)C1NC(C)=O)C(N)=O)NC1c2ccccc2Nc2cccc([N+](=O)[O-])c21 (some centres undefined),inactive: > 100 µM
17,CC1=CC(/C=C(\C)CCCc2ccoc2)C2(OC(=O)C(C)=C2O)[C@H]2C1CC[C@@H]2C (some centres undefined),inactive: 24.6 µM
18,CC(C)(C)c1ccc(S(=O)(=O)N2C(c3cccc(C4CC[C@@H](C(=O)O)N4S(=O)(=O)c4ccc(C(C)(C)C)cc4)c3)CC[C@H]2C(=O)O)cc1 (some centres undefined),inactive: 57.9 µM
19,CCCCCCCCCCCCCCCC(=O)NCC(COP(=O)([O-])OCC[N+](C)(C)C)OCC (centres undefined),inactive: 18.3 µM
20,Cc1c2cc[n+]([O-])cc2c(C)c2c1[nH]c1ccccc12,inactive: 7.24 µM
21,COc1ccccc1/C=C\c1cc(OC)c(OC)c(OC)c1,inactive: 63.5 µM
22,NS(=O)(=O)c1ccc(-n2c(-c3cccs3)nc3ccc(I)cc3c2=O)cc1,inactive: 25.1 µM
